Where a name gives a salt, the structure may show the parent alone. The list shows a part of the results.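 Rule for the calls: active = more than 2 SD below the DMSO mean: under 0.85 at 10 µM or 0.885 at 1 µM; inactive = the rest.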 Many values rest on one well or one pass, so single values are uncertain.
System: RPE1
Experiment: nucleolar normality score relative to DMSO (fraction of DMSO control); RPE1 is a non-cancer human cell line; higher = more normal nucleoli (less nucleolar stress)
Conditions: 24 h
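Note: fixed cells immunolabelled for nucleolin and UBF, 40 image fields per well in 384-well plates, per-cell score = nucleolin nucleolar/nucleoplasm intensity ratio divided by the matching UBF ratio.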

CC(C)n1c(/C=C/C(O)CC(O)CC(=O)O)c(-c2ccc(F)cc2)c2ccccc21 (stereo not drawn) [Fluvastatin Sodium]
nucleolar normality score (1 µM): inactive: 0.922 | nucleolar normality score (10 µM): inactive: 1.02

CC(C)N(CCCNC(=O)Nc1ccc(C(C)(C)C)cc1)C[C@H]1O[C@@H](n2cc(Br)c3c(N)ncnc32)[C@H](O)[C@@H]1O
nucleolar normality score (1 µM): inactive: 1.08 | nucleolar normality score (10 µM): inactive: 1.07

COc1c/c(=C2\C=c3ccccc3=N2)[nH]/c1=C\c1[nH]c(C)cc1C [Obatoclax Mesylate (GX15-070)]
nucleolar normality score (1 µM): active: 0.806 | nucleolar normality score (10 µM): active: 0.581

COc1cc(N2CCC(N)CC2)ccc1Nc1ncc(Cl)c(-c2c[nH]c3ccccc23)n1
nucleolar normality score (1 µM): active: 0.68 | nucleolar normality score (10 µM): active: 0.619

Nc1[nH]nc2nnc(-c3c(-c4ccccc4)nn4ccccc34)cc12
nucleolar normality score (1 µM): inactive: 0.95 | nucleolar normality score (10 µM): inactive: 1.03

NC(=O)/C(=C/n1cnc(-c2cc(C(F)(F)F)cc(C(F)(F)F)c2)n1)c1cncnc1 [Eltanexor (KPT-8602)]
nucleolar normality score (1 µM): inactive: 1.1 | nucleolar normality score (10 µM): inactive: 1.03

Nc1nonc1C(=Nc1ccc(F)c(Cl)c1)NO
nucleolar normality score (1 µM): inactive: 1 | nucleolar normality score (10 µM): inactive: 1.03

CCN(CC)CCOc1ccc2c(c1)C(=O)c1cc(OCCN(CC)CC)ccc1-2 [Tilorone dihydrochloride]
nucleolar normality score (1 µM): inactive: 1 | nucleolar normality score (10 µM): active: 0.826

O=C(O)c1ccc2c(c1)nc(Nc1cccc(Cl)c1)c1ccncc12 [Silmitasertib (CX-4945)]
nucleolar normality score (1 µM): inactive: 1 | nucleolar normality score (10 µM): inactive: 1.04

O=C1NCCc2[nH]c(-c3ccncc3)cc21
nucleolar normality score (1 µM): inactive: 0.936 | nucleolar normality score (10 µM): active: 0.657

COc1ccc(S(=O)(=O)Nc2cccnc2Nc2ccc(O)cc2)cc1
nucleolar normality score (1 µM): inactive: 1.04 | nucleolar normality score (10 µM): inactive: 1.09

O=C(/C=C/c1ccc(O)c(O)c1)c1ccc(O)cc1O [Butein]
nucleolar normality score (1 µM): inactive: 1.08 | nucleolar normality score (10 µM): inactive: 1.04

O=C(CCCCCCC(=O)Nc1ccccc1)NO [Vorinostat (SAHA, MK0683)]
nucleolar normality score (1 µM): inactive: 0.962 | nucleolar normality score (10 µM): inactive: 1.05

NC(=O)c1cc(F)cc2c1C(=O)N(C1CCN(C3CCC(F)(F)CC3)CC1)C2
nucleolar normality score (1 µM): inactive: 1.05 | nucleolar normality score (10 µM): inactive: 1.01

CC(C)=CCC[C@](C)(O[C@@H]1O[C@H](CO)[C@@H](O)[C@H](O)[C@H]1O)[C@H]1CC[C@]2(C)[C@@H]1[C@H](O)C[C@@H]1[C@@]3(C)CC[C@H](O)C(C)(C)[C@@H]3[C@@H](O[C@@H]3O[C@H](CO)[C@@H](O)[C@H](O)[C@H]3O)C[C@]12C [Ginsenoside Rg1]
nucleolar normality score (1 µM): inactive: 1.02 | nucleolar normality score (10 µM): inactive: 0.861

COc1cc2/c(=N/c3ccc(Br)cc3F)nc[nH]c2cc1OCC1CCN(C)CC1 [Vandetanib (ZD6474)]
nucleolar normality score (1 µM): inactive: 1.05 | nucleolar normality score (10 µM): inactive: 1.01

O=C1C(=Cc2cccnc2)C(=O)c2ccccc21
nucleolar normality score (1 µM): inactive: 0.945 | nucleolar normality score (10 µM): inactive: 0.997

CCN(CC)C(=S)SSC(=S)N(CC)CC [Disulfiram]
nucleolar normality score (1 µM): inactive: 0.931 | nucleolar normality score (10 µM): inactive: 0.971

O=C(CCCCCN1C(=O)c2cccc3cccc(c23)C1=O)NO [Scriptaid]
nucleolar normality score (1 µM): inactive: 1 | nucleolar normality score (10 µM): inactive: 1.04

O=C(O)C(Cc1c[nH]c2ccccc12)N1C(=O)c2ccccc2C1=O (stereo not drawn)
nucleolar normality score (1 µM): inactive: 0.985 | nucleolar normality score (10 µM): inactive: 1.07

Cc1cc(C(=O)Nc2nc3cccc(Cl)c3n2[C@@H]2CCCCN(C(=O)/C=C/CN(C)C)C2)ccn1 [Nazartinib (EGF816, NVS-816)]
nucleolar normality score (1 µM): inactive: 1.06 | nucleolar normality score (10 µM): inactive: 1.06

CC#CC(=O)Nc1ccc2ncnc(Nc3cccc(Br)c3)c2c1
nucleolar normality score (1 µM): inactive: 0.946 | nucleolar normality score (10 µM): inactive: 0.868

Cc1nc2cccc(N)c2c(=O)n1C1CCC(=O)NC1=O (stereo not drawn) [Avadomide(CC-122)]
nucleolar normality score (1 µM): inactive: 1.01 | nucleolar normality score (10 µM): inactive: 1.07

COc1cc(F)c(F)c(Nc2ccc(I)cc2F)c1NS(=O)(=O)C1(C[C@H](O)CO)CC1 [Refametinib (RDEA119, Bay 86-9766)]
nucleolar normality score (1 µM): inactive: 1.04 | nucleolar normality score (10 µM): inactive: 1.06

CS(=O)(=O)N1CCN(Cc2cc3nc(-c4cccc5[nH]ncc45)nc(N4CCOCC4)c3s2)CC1 [Pictilisib (GDC-0941)]
nucleolar normality score (1 µM): inactive: 0.938 | nucleolar normality score (10 µM): inactive: 0.972

NCCSSCCN [Cystamine dihydrochloride]
nucleolar normality score (1 µM): inactive: 1.04 | nucleolar normality score (10 µM): inactive: 0.928

CC(=O)OCC(=O)[C@@]1(O)[C@H](C)C[C@H]2[C@@H]3CCC4=CC(=O)C=C[C@]4(C)[C@@]3(F)[C@@H](O)C[C@@]21C [Dexamethasone Acetate]
nucleolar normality score (1 µM): inactive: 1.11 | nucleolar normality score (10 µM): inactive: 1.09

Nc1nc2cc(-c3ccc4ncc(C(=O)N5CCOCC5)n4c3)ccc2o1 [Serabelisib (INK-1117,MLN-1117,TAK-117)]
nucleolar normality score (1 µM): inactive: 0.979 | nucleolar normality score (10 µM): inactive: 0.995

COc1c(N2C[C@@H]3CCCN[C@@H]3C2)c(F)cc2c(=O)c(C(=O)O)cn(C3CC3)c12 [Moxifloxacin]
nucleolar normality score (1 µM): inactive: 1.01 | nucleolar normality score (10 µM): inactive: 1

NCCCC[C@@H]1NC(=O)[C@@H](Cc2ccccc2)NC(=O)[C@H](CC(=O)O)NC(=O)CNC(=O)[C@H](CCCN=C(N)N)NC1=O [Cyclo (-RGDfK)]
nucleolar normality score (1 µM): inactive: 1.02 | nucleolar normality score (10 µM): inactive: 1.03

c1cc(-c2cnn3cc(-c4ccc(N5CCNCC5)cc4)cnc23)c2cccnc2c1
nucleolar normality score (1 µM): inactive: 0.947 | nucleolar normality score (10 µM): inactive: 1.09

Cc1n[nH]c2ncc(C(=O)N3CCC[C@H]3c3ccc(Cl)cc3)cc12
nucleolar normality score (1 µM): inactive: 1.06 | nucleolar normality score (10 µM): inactive: 1.04

C=C1CC2(O)OC3(CC2C(C)C)C(C)CCC13 (stereo not drawn) [Curcumol]
nucleolar normality score (1 µM): inactive: 1.02 | nucleolar normality score (10 µM): inactive: 0.888

Cn1c(=O)cc(C(=O)Nc2ccc3c(c2)OCCO3)c2ccccc21
nucleolar normality score (1 µM): inactive: 0.994 | nucleolar normality score (10 µM): inactive: 1.04

CNC(=O)c1ccccc1Nc1nc(Nc2ccc(N3CCOCC3)cc2OC)ncc1Cl
nucleolar normality score (1 µM): inactive: 1.08 | nucleolar normality score (10 µM): inactive: 1.08

CC1=C(C(=O)Nc2cc3cn[nH]c3cc2F)C(c2ccc(C(F)(F)F)cc2)CC(=O)N1 (stereo not drawn)
nucleolar normality score (1 µM): inactive: 1 | nucleolar normality score (10 µM): inactive: 1.05

O=NN(CCCl)C(=O)NCCCl [Carmustine]
nucleolar normality score (1 µM): inactive: 0.932 | nucleolar normality score (10 µM): inactive: 0.983

CC(=O)c1cc2c(o1)C(=O)c1ccccc1C2=O [Napabucasin]
nucleolar normality score (1 µM): active: 0.466 | nucleolar normality score (10 µM): active: 0.373

O=c1oc2c(O)c(O)cc3c(=O)oc4c(O)c(O)cc1c4c23 [Ellagic acid]
nucleolar normality score (1 µM): inactive: 1.05 | nucleolar normality score (10 µM): inactive: 1.12

CNC(=O)c1ccccc1Nc1cc(Nc2ccc(N3CCOCC3)cc2OC)ncc1C(F)(F)F
nucleolar normality score (1 µM): inactive: 0.913 | nucleolar normality score (10 µM): inactive: 1.02

CNC(=O)c1cc(Oc2ccc(NC(=O)Nc3ccc(Cl)c(C(F)(F)F)c3)cc2)ccn1 [Sorafenib Tosylate]
nucleolar normality score (1 µM): inactive: 1.07 | nucleolar normality score (10 µM): inactive: 1.12

COc1cccc2c1C(=O)c1c(O)c3c(c(O)c1C2=O)C[C@@](O)(C(C)=O)C[C@@H]3O[C@H]1C[C@H](N)[C@H](O)[C@H](C)O1 [Daunorubicin HCl]
nucleolar normality score (1 µM): active: 0.235 | nucleolar normality score (10 µM): active: 0.403

Cc1ccc(S(=O)(=O)Cc2nc(-c3ccc(C(=O)NCc4cccnc4)cc3)oc2C)cc1
nucleolar normality score (1 µM): inactive: 1.02 | nucleolar normality score (10 µM): inactive: 1.02

CC/C(=C(\c1ccc(O)cc1)c1ccc(OCCNC)cc1)c1ccccc1 [Endoxifen HCl]
nucleolar normality score (1 µM): inactive: 0.988 | nucleolar normality score (10 µM): inactive: 1.04

C=C1CC[C@@H]2[C@](C)(CO)[C@H](O)CC[C@@]2(C)[C@@H]1C/C=C1/C(=O)OC[C@H]1O [Andrographolide]
nucleolar normality score (1 µM): inactive: 1.06 | nucleolar normality score (10 µM): inactive: 1.15

Cc1ncc(-c2ccnc(Nc3ccc(S(C)(=O)=O)cc3)n2)n1C(C)C
nucleolar normality score (1 µM): inactive: 1.07 | nucleolar normality score (10 µM): inactive: 0.885

Cc1ccc2nc(CN(CCN(Cc3nc4ccc(C)cc4[nH]3)Cc3nc4ccc(C)cc4[nH]3)Cc3nc4ccc(C)cc4[nH]3)[nH]c2c1
nucleolar normality score (1 µM): inactive: 0.963 | nucleolar normality score (10 µM): inactive: 0.936

N#CCNC(=O)c1ccc(-c2ccnc(Nc3ccc(N4CCOCC4)cc3)n2)cc1 [Momelotinib (CYT387)]
nucleolar normality score (1 µM): inactive: 0.979 | nucleolar normality score (10 µM): inactive: 1.06

Cc1ccc(C(=O)Nc2ccc(Oc3cc4cnn(C)c4cc3-c3cn[nH]c3)c(F)c2)c(=O)n1-c1ccc(F)cc1
nucleolar normality score (1 µM): inactive: 0.937 | nucleolar normality score (10 µM): active: 0.82

O=C(/C=C/c1ccc(O)cc1)c1ccc(O)cc1O [Isoliquiritigenin]
nucleolar normality score (1 µM): inactive: 1.07 | nucleolar normality score (10 µM): inactive: 1.06

N#Cc1ccc(-c2csc(NN=C3CCCC3)n2)cc1 [Remodelin]
nucleolar normality score (1 µM): inactive: 1.02 | nucleolar normality score (10 µM): inactive: 1.08

CS(=O)(=O)OCCCCOS(C)(=O)=O [Busulfan]
nucleolar normality score (1 µM): inactive: 1.04 | nucleolar normality score (10 µM): inactive: 1.09

C=CC(C)(C)c1cc(C=CC(=O)c2ccc(O)cc2)c(OC)cc1O [Licochalcone A]
nucleolar normality score (1 µM): inactive: 1.01 | nucleolar normality score (10 µM): inactive: 1.07

CN1CCc2c(c3ccccc3n2Cc2ccc(C(=O)NO)cc2)C1 [Tubastatin A HCl]
nucleolar normality score (1 µM): inactive: 1.07 | nucleolar normality score (10 µM): inactive: 1.11

CN1CCc2c(c3ccccc3n2Cc2ccc(C(=O)NO)cc2)C1 [Tubastatin A]
nucleolar normality score (1 µM): inactive: 0.978 | nucleolar normality score (10 µM): inactive: 1.02

Cc1c(CN2CCN(C(=O)[C@H](C)O)CC2)sc2c(N3CCOCC3)nc(-c3cnc(N)nc3)nc12 [Apitolisib (GDC-0980, RG7422)]
nucleolar normality score (1 µM): active: 0.564 | nucleolar normality score (10 µM): active: 0.425

CC(C)(CO)c1cc2cc(NC(=O)C3(c4ccc5c(c4)OC(F)(F)O5)CC3)c(F)cc2n1C[C@@H](O)CO
nucleolar normality score (1 µM): inactive: 1.05 | nucleolar normality score (10 µM): inactive: 1.05

COc1cc2nccc(Oc3ccc(NC(=O)NC4CC4)c(Cl)c3)c2cc1C(N)=O [Lenvatinib (E7080)]
nucleolar normality score (1 µM): inactive: 0.945 | nucleolar normality score (10 µM): inactive: 1.05

COc1cc2nccc(Oc3ccc(NC(=O)NC4CC4)c(Cl)c3)c2cc1C(N)=O [lenvatinib Mesylate]
nucleolar normality score (1 µM): inactive: 1 | nucleolar normality score (10 µM): inactive: 1.07
